Laboratory results reported in ChEMBL document CHEMBL4888484, “Replenishing the malaria drug discovery pipeline: Screening and hit evaluation of the MMV Hit Generation Library 1 (HGL1) against asexual blood stage Plasmodium falciparum ,using a nano luciferase reporter read-out” (2022).
The campaign covered roughly 150,000 compounds. About 540 (0.36%) showed an effect of 50% or more. The list shows a part of the results.

Each compound was assayed on Plasmodium falciparum (assay: Primary screen in NF54 nanoGlo assay, in single point, at 2uM, 72h; a lower Z score goes with more inhibition). Settings: timepoint 72 hour.
Format: functional, Erythrocyte
`Cc1ccccc1CC1(N[C@@H](C)Cn2ccnc2C)CC1` was tested, and the “% Inhibition” value was -10% and the Z score was 1.79. With `COCc1nc2cc(NC(=O)Cc3ccccc3)cc(C(=O)N3CCNC(=O)C3)c2n1C` the “% Inhibition” value was -18% and the Z score was 1.6. In the case of `Cc1cc(NCCNS(=O)(=O)CCCF)n(C)n1`, the “% Inhibition” value is reported as -4% and the Z score is reported as 0.4. With `CS(=O)(=O)[C@@H]1CCCC[C@H]1NC(=O)c1ccc(Cl)c(F)c1` the “% Inhibition” value was -3% and the Z score was 0.39. `CN(C)CCN1C(=O)N[C@@](Cc2cccc(F)c2)(C2CCN(C(=O)c3cccs3)CC2)C1=O` was tested, and the “% Inhibition” value was -15% and the Z score was 2.14. In the case of `O=C(CNC1(c2cccc(Cl)c2)CC1)NCc1ccco1`, the “% Inhibition” value is reported as -8% and the Z score is reported as 1.02. For `CCN1CCN(C2CN(S(=O)(=O)c3ccc(F)cc3C)C2)CC1`, the “% Inhibition” value was -3% and the Z score was 0.52. For `CC(C)n1cc(NC(=O)N2CCC[C@H](c3cn[nH]c3)C2)cn1`, the “% Inhibition” value was 2% and the Z score was -0.23. In the case of `Cc1ncsc1CNCCCNc1ccccc1`, the “% Inhibition” value is reported as -14% and the Z score is reported as 2.11. For `CCn1ncc(C(=O)N2C[C@@H]3CN(C(=O)C(C)C)C[C@]3(C(=O)N3CCCC3)C2)c1C`, the “% Inhibition” value was -2% and the Z score was 0.29. In the case of `O=C(O)C[C@@H]1CCN(C2CCC2)C[C@@H]1Cc1nc2ccccc2[nH]1`, the “% Inhibition” value is reported as 3% and the Z score is reported as -0.44. With `O=C(Cc1ccc2c(c1)OCO2)N(CCO)Cc1ccc(Cl)cc1` the “% Inhibition” value was -10% and the Z score was 0.97. With `CCCc1nnc(NC(=O)CCN2C(=O)CCC2=O)s1` the “% Inhibition” value was -2% and the Z score was 0.33. With `c1ccc(-c2nc(CN3C[C@@H]4NCCO[C@H]4C3)cs2)cc1` the “% Inhibition” value was -13% and the Z score was 2.56. In the case of `Nc1ncncc1C(=O)OCc1noc(C2CC2)n1`, the “% Inhibition” value is reported as -9% and the Z score is reported as 1.44. For `Cc1c(C(=O)NC[C@H]2COc3ccccc3O2)cnn1-c1nccc(-c2ccco2)n1`, the “% Inhibition” value was -1% and the Z score was 0.09. In the case of `CC(C)c1noc(OCCS(=O)(=O)N(C)C)n1`, the “% Inhibition” value is reported as -4% and the Z score is reported as 0.54. In the case of `CCN1CCC[C@@H]1CNC(=O)c1c(COC)n(CCc2cccc(Cl)c2)c(C)cc1=O`, the “% Inhibition” value is reported as -9% and the Z score is reported as 1.18. `COc1cccc(O)c1S(=O)(=O)N1CC(NC2COC2)C1` was tested, and the “% Inhibition” value was -4% and the Z score was 0.65. `CC(C)NC(=NCc1ccsc1)N(C)C` was tested, and the “% Inhibition” value was -7% and the Z score was 1.14. In the case of `CN(C(=O)OC(C)(C)C)[C@H]1CCCN(Cc2nnc(C3CC3)n2C)C1`, the “% Inhibition” value is reported as -5% and the Z score is reported as 0.51. For `CC(=O)N1CCC(CNC(=O)c2cccc(OCCc3ccccc3)c2)CC1`, the “% Inhibition” value was 12% and the Z score was -1.68. For `COc1ccc(NC(=O)c2ccc(N(S(=O)(=O)c3ccc(Cl)cc3F)S(=O)(=O)c3ccc(Cl)cc3F)cc2)cc1`, the “% Inhibition” value was -10% and the Z score was 1.36. In the case of `O=C(NCCN1CCc2c(Cl)cccc2C1)N[C@@H]1C=C[C@H](CO)C1`, the “% Inhibition” value is reported as -12% and the Z score is reported as 1.63. For `Cc1cnc2c(cnn2Cc2nc([C@H]3CCO[C@@H]3C(C)(C)C)no2)c1`, the “% Inhibition” value was -9% and the Z score was 1.15. In the case of `CCN(CCN(C)C)C(=O)c1cccc(-c2ncccc2C)c1`, the “% Inhibition” value is reported as -6% and the Z score is reported as 0.81. `N#Cc1ccc(NC(=O)N2CCC([C@@H](O)CCc3ccccc3)CC2)c(F)c1` was tested, and the “% Inhibition” value was -5% and the Z score was 0.7. In the case of `Cn1cnnc1CCC(=O)N1CCN(Cc2ccc3c(c2)OCO3)CC1`, the “% Inhibition” value is reported as -9% and the Z score is reported as 0.89. In the case of `CN(Cc1nncn1C)C(=O)C[C@H]1CCCOC1`, the “% Inhibition” value is reported as -2% and the Z score is reported as 0.42. In the case of `Cc1ccc2c(c1)C(=O)N1CCCC3=NN(c4c(Cl)cc(Cl)cc4Cl)C(=N)C3=C1N2`, the “% Inhibition” value is reported as -9% and the Z score is reported as 0.92. With `CS(=O)(=O)Cc1ccc(NCC[C@H]2CCCOC2)nc1` the “% Inhibition” value was -5% and the Z score was 0.78. `Cc1ncoc1C(=O)N(C)Cc1csc(-c2ccccc2)n1` was tested, and the “% Inhibition” value was 5% and the Z score was -0.79. `Cc1ccc(OCC2c3ccsc3CCN2C(=O)CN(CC2CCCO2)C(=O)c2cccc(Cl)c2)c(C)c1` (stereo not given) was tested, and the “% Inhibition” value was -10% and the Z score was 1.36. With `CO[C@]12CCC[C@@]1(NCc1cnc3onc(C)c3c1)CCO2` the “% Inhibition” value was 0% and the Z score was -0.01. In the case of `O=C(CC1CC2CCC1C2)Nc1nccs1` (stereo not given), the “% Inhibition” value is reported as 16% and the Z score is reported as -1.91. In the case of `CC(C)c1ncc(NC(=O)c2cccc3cc[nH]c23)cn1`, the “% Inhibition” value is reported as -1% and the Z score is reported as 0.27. In the case of `CC(C)O[C@H]1CN(C(=O)c2cc(Cl)cn2C)C[C@@H]1O`, the “% Inhibition” value is reported as -1% and the Z score is reported as 0.14. In the case of `Cc1cc(C)c(NC(=O)[C@H]2CCCN(S(=O)(=O)Cc3cccc(Cl)c3)C2)c(C)c1`, the “% Inhibition” value is reported as 7% and the Z score is reported as -0.95. For `Cc1noc(C2CCN(C(=O)c3nccnc3C)CC2)n1`, the “% Inhibition” value was 5% and the Z score was -0.85. `CCOc1ccccc1NC(=O)N1CC[C@H](Cn2c(C)cnc2C2CCC2)C1` was tested, and the “% Inhibition” value was -10% and the Z score was 1.36. In the case of `CN(C)C(=O)c1noc2c1CN(C(=O)[C@@H]1COc3ccccc3C1)CC2`, the “% Inhibition” value is reported as -9% and the Z score is reported as 1.13. In the case of `CC(=O)N1CCC(Cc2ccc(CN(Cc3ccc(C#N)cc3)C3CC3)cc2)CC1`, the “% Inhibition” value is reported as -11% and the Z score is reported as 2.21. With `O=S(=O)(c1cccc(-c2nc3c4ccccc4nc(O)n3n2)c1)N1CCCC1` the “% Inhibition” value was -10% and the Z score was 0.93. `Cc1oncc1C(=O)NCc1ccsc1` was tested, and the “% Inhibition” value was -3% and the Z score was 0.63. For `CCNC(=O)CN(CC)c1nc(C2CC2)ns1`, the “% Inhibition” value was -7% and the Z score was 1.28. In the case of `O=C([C@H]1CC(=O)N(c2ccccc2)C1)N1CCCC1`, the “% Inhibition” value is reported as -1% and the Z score is reported as 0.12. `Cc1nn(C)c(C)c1OCC1(CS(C)(=O)=O)CC1` was tested, and the “% Inhibition” value was -1% and the Z score was 0.22. With `COc1ccccc1CNC(=O)CC(C)=O` the “% Inhibition” value was 1% and the Z score was -0.29. For `CCc1nc(CN(CC(C)C)C(=O)C(C)C)[nH]c(=O)c1Cc1ccc(OC)cc1`, the “% Inhibition” value was -7% and the Z score was 1.23. With `O=C(COc1ccc2c(c1)C(=O)CC2)NCc1ccccn1` the “% Inhibition” value was 5% and the Z score was -0.64. For `O=C(NCCc1ccccc1)N1CCC[C@@](F)(C(=O)N2CCOCC2)C1`, the “% Inhibition” value was -17% and the Z score was 1.54. With `Cc1cccc(OCC(=O)N(Cc2cccc(Br)c2)[C@H]2CCS(=O)(=O)C2)c1` the “% Inhibition” value was 0% and the Z score was -0.02. In the case of `Cc1ccc(CNC(=O)NCC(=O)N2CCOCC3(CC3)C2)cc1`, the “% Inhibition” value is reported as -6% and the Z score is reported as 0.74. For `CCOC(=O)c1cn(C)nc1NS(=O)(=O)c1ccc(C)nc1`, the “% Inhibition” value was -18% and the Z score was 3.38. For `CC(C)NC(=O)c1coc(CN(Cc2ccc(F)cc2)Cc2ccc(C(C)C)cc2)n1`, the “% Inhibition” value was 5% and the Z score was -0.76. For `COCCc1nnc2n1CC1CCC(C2)N1C(=O)c1ccc(C(C)C)cc1` (stereo not given), the “% Inhibition” value was 1% and the Z score was -0.25. With `Cc1cc(C(=O)Nc2nc3ccc(F)cn3n2)cc(O)n1` the “% Inhibition” value was -7% and the Z score was 0.96. For `O=C(Nc1nnc(C2CC2)s1)N1CCC(CN2CCCC2)CC1`, the “% Inhibition” value was -7% and the Z score was 0.71. In the case of `C[C@@H](CNC(=O)CCCn1ccnc1)Oc1ccccc1`, the “% Inhibition” value is reported as -13% and the Z score is reported as 1.58. In the case of `CN(C)C(=O)N(CCN1CCCCC1)[C@H]1CCN(C(=O)NCc2ccccc2)C1`, the “% Inhibition” value is reported as -7% and the Z score is reported as 0.83. For `O=C(NCC1(OCCO)CCCC1)Nc1cccs1`, the “% Inhibition” value was -11% and the Z score was 1.23. In the case of `O=C(O)C1CCCN1C(=O)C1CC1c1ccccc1C(F)(F)F` (stereo not given), the “% Inhibition” value is reported as -5% and the Z score is reported as 0.52. `Cc1nn(C)c(C)c1NC(=O)CN1C(=O)COc2ccc(Cl)cc21` was tested, and the “% Inhibition” value was -1% and the Z score was 0.15. In the case of `O=C(NC[C@H]1CCC(=O)N(Cc2ccccc2)CC1)c1ccoc1`, the “% Inhibition” value is reported as 28% and the Z score is reported as -3.8. For `O=C(CCCNC(=O)Nc1ccncc1F)NC1CC1`, the “% Inhibition” value was -4% and the Z score was 0.51. `Cc1cc(N(C)C)nc(N2CCO[C@@H](CN(C)C)C2)n1` was tested, and the “% Inhibition” value was -6% and the Z score was 0.71. For `Oc1ccccc1C1=NC(CN2CCCCC2)C(=S)C1c1ccccc1` (stereo not given), the “% Inhibition” value was -9% and the Z score was 1.1. In the case of `Cc1nc(CN2CCN(C(=O)c3ccc(C)n3C)CC2)n[nH]1`, the “% Inhibition” value is reported as 3% and the Z score is reported as -0.46. In the case of `CCC(=O)N(C)c1nc2ccccc2n(CC(=O)Nc2cccc3ccccc23)c1=O`, the “% Inhibition” value is reported as -1% and the Z score is reported as 0.13. In the case of `Cc1ccc([C@H]2c3cc(OCC(=O)NC(C)C)ccc3CCN2C(=O)C2CCCC2)cc1`, the “% Inhibition” value is reported as -4% and the Z score is reported as 0.59. With `O=C(c1cn2c3c(cccc3c1=O)CCC2)N1CCCC1` the “% Inhibition” value was -15% and the Z score was 1.36. With `CC(=O)N1CCCN(C(=O)c2cc(-c3ccccc3)[nH]n2)CC1` the “% Inhibition” value was -15% and the Z score was 2.23. In the case of `CC(C)[C@@H]1CCO[C@@H]1CNC(=O)NCc1ccc2occc2c1`, the “% Inhibition” value is reported as 31% and the Z score is reported as -3.54. In the case of `CCN(CC(=O)Nc1cccc(S(N)(=O)=O)c1)[C@H](COC)Cc1ccccc1`, the “% Inhibition” value is reported as -6% and the Z score is reported as 0.8. For `CC(=O)c1ccc(NC(=O)c2ncn3c2C(=O)N(C2CC2)[C@](C)(C(=O)NCc2ccc(C)cc2)C3)cc1`, the “% Inhibition” value was -23% and the Z score was 2.28. With `Cc1cccc(NC(=O)CN2C(=O)CC(c3cccc(Cl)c3)=Nc3cccnc32)c1` the “% Inhibition” value was 28% and the Z score was -3.2. `CC#CCNc1ccc(C(N)=O)c(C)c1` was tested, and the “% Inhibition” value was 0% and the Z score was -0.06. In the case of `O=C(NCc1cccs1)N1CCCCCCC1`, the “% Inhibition” value is reported as 1% and the Z score is reported as -0.1. For `O=C1CN(S(=O)(=O)c2ccc3c(c2)CCO3)CCN1c1nccs1`, the “% Inhibition” value was 4% and the Z score was -0.46. For `CC(C)c1oncc1NC(=O)C[C@@H]1C=CCCC1`, the “% Inhibition” value was -9% and the Z score was 0.93. `CCN(C1CCN(C)CC1)C1CN(C(=O)CC(C)C)C1` was tested, and the “% Inhibition” value was -14% and the Z score was 1.85. `CC1(C)Oc2ccc(NC(=O)c3ccco3)cc2NC1=O` was tested, and the “% Inhibition” value was 30% and the Z score was -4.27. For `O=C(c1ccco1)N1CCN(c2cc3c(nn2)CCCC3)CC1`, the “% Inhibition” value was -21% and the Z score was 3.53. With `COc1ccccc1/N=C(\NOC(C)=O)c1nonc1N` the “% Inhibition” value was -2% and the Z score was 0.33. `CC1(C)C2CCC1(C)C(OC(=O)CN1CCCCCC1)C2` (stereo not given) was tested, and the “% Inhibition” value was 0% and the Z score was -0.02.
